Measurements: the supplement of paper PMC7826260
Some of the results follow. Viral Rep nickase domains cut single-stranded DNA in vitro at 3 µM enzyme and 37 °C for 1 h; the strands have 90 letters, of which the middle is given. Uncut reads are compared with the no-enzyme pool on a log2 scale; strong cutting gives strongly negative numbers. There is no active / inactive call. Reads are scaled to the total; where an enzyme cuts many sequences, the uncut ones exceed 0.

Columns and labels:
Experiment in all cases: uncleaved DNA left, log2 of reads against the no-enzyme library (log2 ratio); higher = less cleavage (more negative = more Rep cleavage of the k-mer); sequences stand for … in CTCGTCCG…ACCGGAGA
[1] = test system: T1, Rep nickase domain of Muscovy duck circovirus
T1 sequence (protein, residues 1-111, tag omitted): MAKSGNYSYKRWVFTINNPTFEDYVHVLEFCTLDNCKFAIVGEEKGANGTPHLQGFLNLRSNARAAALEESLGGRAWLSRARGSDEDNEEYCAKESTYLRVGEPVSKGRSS
Method: (§1)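 A pool of 90-nt single-stranded DNAs with seven random bases just before the constant AC of the nick site (name = the seven bases) was cut by 3 µM recombinant His6-SUMO-tagged Rep nickase domain (300 nM DNA, 50 mM HEPES pH 8.0, 50 mM NaCl, 1 mM MnCl2, 1 h, 37 °C, three replicates). Uncut DNA was amplified and sequenced.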

[2] = test system: T2, Rep nickase domain of banana bunchy top virus
T2 sequence (protein, residues 1-94, tag omitted): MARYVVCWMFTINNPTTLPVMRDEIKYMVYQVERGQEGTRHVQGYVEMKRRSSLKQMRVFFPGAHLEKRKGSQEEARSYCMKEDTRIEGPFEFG
Method: as §1

[3] = test system: T3, Rep nickase domain of cabbage leaf curl virus
T3 sequence (protein, residues 1-116, tag omitted): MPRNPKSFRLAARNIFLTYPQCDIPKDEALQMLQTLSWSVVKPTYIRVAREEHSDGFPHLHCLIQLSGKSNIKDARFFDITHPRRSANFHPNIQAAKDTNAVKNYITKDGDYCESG
Method: as §1

[4] = test system: T4, Rep nickase domain of chickpea chlorotic dwarf virus
T4 sequence (protein, residues 1-124, tag omitted): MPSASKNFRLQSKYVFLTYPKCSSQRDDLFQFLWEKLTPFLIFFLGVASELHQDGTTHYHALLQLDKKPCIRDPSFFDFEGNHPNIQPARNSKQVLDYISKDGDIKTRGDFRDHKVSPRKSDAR
Method: as §1

[5] = test system: T5, Rep nickase domain of faba bean necrotic yellows virus
T5 sequence (protein, residues 1-98, tag omitted): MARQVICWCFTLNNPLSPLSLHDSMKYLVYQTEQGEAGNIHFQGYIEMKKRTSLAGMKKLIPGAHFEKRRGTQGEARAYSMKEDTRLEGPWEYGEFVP
Method: as §1

[6] = test system: T6, Rep nickase domain of maize striate mosaic virus
T6 sequence (protein, residues 1-117, tag omitted): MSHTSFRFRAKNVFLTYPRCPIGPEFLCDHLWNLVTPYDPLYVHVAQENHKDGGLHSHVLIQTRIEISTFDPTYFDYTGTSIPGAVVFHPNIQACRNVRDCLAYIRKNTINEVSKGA
Method: as §1

[7] = test system: T7, Rep nickase domain of porcine circovirus 2
T7 sequence (protein, residues 2-116, tag omitted): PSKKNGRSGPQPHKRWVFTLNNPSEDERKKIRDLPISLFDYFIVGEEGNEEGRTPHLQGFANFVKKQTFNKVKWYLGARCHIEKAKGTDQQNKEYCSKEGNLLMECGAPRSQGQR
Method: as §1

[8] = test system: T8, Rep nickase domain of tomato golden mosaic virus
T8 sequence (protein, residues 1-124, tag omitted): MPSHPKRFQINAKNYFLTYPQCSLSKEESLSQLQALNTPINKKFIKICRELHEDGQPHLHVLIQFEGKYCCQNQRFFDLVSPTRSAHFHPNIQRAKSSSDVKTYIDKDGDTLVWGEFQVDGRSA
Method: as §1

[9] = test system: T9, Rep nickase domain of tomato yellow leaf curl virus
T9 sequence (protein, residues 1-136, tag omitted): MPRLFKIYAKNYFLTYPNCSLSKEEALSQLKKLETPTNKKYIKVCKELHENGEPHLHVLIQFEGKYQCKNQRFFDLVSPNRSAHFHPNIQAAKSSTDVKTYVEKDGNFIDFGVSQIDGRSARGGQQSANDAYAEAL
Method: as §1

[10] = test system: T10, Rep nickase domain of wheat dwarf virus
T10 sequence (protein, residues 1-137, tag omitted): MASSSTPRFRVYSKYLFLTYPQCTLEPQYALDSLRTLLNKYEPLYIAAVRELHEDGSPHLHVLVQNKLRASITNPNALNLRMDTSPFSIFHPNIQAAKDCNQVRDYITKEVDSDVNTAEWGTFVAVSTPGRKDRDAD
Method: as §1

| Sequence | uncleaved DNA left (log2) [1] | uncleaved DNA left (log2) [2] | uncleaved DNA left (log2) [3] | uncleaved DNA left (log2) [4] | uncleaved DNA left (log2) [5] | uncleaved DNA left (log2) [6] | uncleaved DNA left (log2) [7] | uncleaved DNA left (log2) [8] | uncleaved DNA left (log2) [9] | uncleaved DNA left (log2) [10] |
| --- | --- | --- | --- | --- | --- | --- | --- | --- | --- | --- |
| TATAGTG | 0.0406 | -0.0502 | -0.569 | -0.728 | 0.0182 | -1.18 | 0.178 | -0.0173 | 0.119 | -0.141 |
| AAATCAT | -0.836 | 0.164 | -3.39 | -2.96 | 0.0897 | -1.23 | -3.37 | -1.44 | 0.00138 | -1.96 |
| TTTGTGA | 0.0777 | -0.0445 | -0.58 | -0.672 | 0.000241 | -1.11 | 0.0568 | -0.0331 | 0.0319 | -0.0664 |
| AAACTGA | 0.0709 | 0.0198 | 0.09 | 0.518 | 0.111 | 1.14 | 0.237 | 0.0878 | -0.0634 | 0.0227 |
| TAGCAAT | 0.0459 | 0.0743 | 0.04 | -1.02 | -0.0156 | 0.379 | -3.17 | 0.0415 | -0.0609 | 0.0312 |
| AGAGCAA | 0.145 | 0.0836 | 0.152 | 0.384 | 0.00697 | 0.193 | -0.71 | -0.0552 | 0.0453 | 0.148 |
| GACTGTT | -2.47 | -2.07 | -0.281 | -0.77 | -0.277 | 1.09 | -2.93 | -0.0443 | -0.0241 | -0.0753 |
| CTTGCGT | 0.0279 | -0.0934 | -0.927 | -0.425 | 0.0231 | -0.915 | 0.0384 | -0.071 | 0.00362 | -0.258 |
| GCTAAGG | 0.102 | 0.111 | 0.338 | 1.25 | 0.0832 | 1.05 | 0.206 | 0.211 | 0.0236 | 0.137 |
| CCTGCTC | 0.177 | 5.55e-05 | -0.0238 | -0.352 | -0.0332 | -0.739 | 0.121 | -0.00931 | -0.0646 | 0.13 |
| TACGTTA | -0.0224 | -0.119 | -0.223 | -2.43 | 0.0498 | -0.477 | -0.24 | -0.0757 | -0.154 | -0.205 |
| ACCATTA | -0.0777 | 0.0137 | -0.481 | -1.22 | -0.103 | -0.992 | -0.00817 | 0.0282 | -0.125 | -0.108 |
| TTGTACA | 0.0123 | -0.0111 | 0.142 | -1.09 | -0.0404 | 0.473 | -0.192 | -0.0571 | -0.0127 | 0.0459 |
| TGATAGG | 0.235 | 0.0978 | 0.368 | 1.09 | -0.084 | 1.08 | 0.172 | 0.185 | -0.0075 | 0.121 |
| TCAGTAT | 0.208 | 0.0104 | 0.212 | 0.583 | 0.15 | 1.08 | 0.242 | 0.0906 | 0.00278 | 0.0816 |
| AGTTTAA | -0.00892 | 0.184 | 0.139 | -0.339 | 0.0799 | 0.000799 | -0.451 | 0.0797 | 0.033 | 0.0765 |

| Sequence | uncleaved DNA left (log2) [1] | uncleaved DNA left (log2) [2] | uncleaved DNA left (log2) [3] | uncleaved DNA left (log2) [4] | uncleaved DNA left (log2) [5] | uncleaved DNA left (log2) [6] | uncleaved DNA left (log2) [7] | uncleaved DNA left (log2) [8] | uncleaved DNA left (log2) [9] | uncleaved DNA left (log2) [10] |
| --- | --- | --- | --- | --- | --- | --- | --- | --- | --- | --- |
| ATAAAAC | 0.0175 | -0.0218 | -0.0807 | -0.868 | -0.0374 | -0.798 | 0.09 | 0.0795 | -0.0133 | 0.0052 |
| TGGCGGT | 0.00909 | -0.0825 | -0.124 | -0.191 | -0.0766 | -0.265 | -0.107 | -0.0336 | -0.165 | -0.0627 |
| TGGCGTG | -0.0914 | -0.0976 | -0.238 | -0.163 | -0.0418 | -0.461 | 0.0956 | -0.0818 | -0.145 | -0.0991 |
| GTGTTCT | -0.0295 | -0.0139 | 0.296 | 0.763 | -0.061 | 1.81 | -0.434 | 0.0287 | 0.0575 | 0.134 |
| TACCCGT | 0.0166 | -0.0815 | -0.556 | -2.26 | -0.0245 | -0.958 | -0.738 | -0.0857 | 0.0204 | -0.0458 |
| GAGCCCA | 0.00888 | 0.0597 | 0.189 | -0.226 | -0.129 | 0.813 | -0.483 | 0.00491 | -0.0211 | 0.0787 |
| GTCACAC | 0.0453 | 0.0268 | 0.324 | 0.954 | -0.0373 | 1.58 | 0.112 | 0.0811 | 0.137 | 0.164 |
| TTATTCA | -0.126 | 0.0652 | 0.19 | -0.36 | -0.0957 | 0.0829 | -0.182 | -0.0383 | 0.0979 | 0.115 |
| ATACCTT | 0.0209 | 0.0664 | -0.0902 | -2.1 | 0.131 | -0.0271 | -0.509 | 0.0355 | 0.0396 | 0.108 |
| TGAGTTG | -0.0505 | -0.0177 | 0.0502 | 0.198 | -0.104 | 0.227 | 0.0825 | -0.063 | -0.197 | -0.0635 |
| TTCAGCA | -0.0427 | -0.0544 | -0.191 | -0.924 | 0.117 | -0.936 | -0.279 | -0.0655 | 0.0537 | -0.112 |
| GCGGCCT | 0.0219 | 0.000831 | 0.335 | 0.595 | -0.118 | 1.34 | -0.0839 | 0.00398 | 0.0296 | -0.078 |
| ATGACGC | 0.0373 | 0.0299 | -0.0728 | -0.104 | 0.126 | -0.847 | 0.0574 | -0.123 | 0.0249 | 0.0566 |
| CTCAACT | -0.0249 | 0.0266 | -0.325 | -2.7 | 0.00688 | -0.809 | -0.206 | -0.00737 | -0.0126 | 0.0744 |
| ATGTTCG | -0.00729 | 0.0348 | -0.859 | -0.0144 | 0.0437 | -0.954 | 0.151 | -0.0316 | 0.0305 | -0.131 |
